# Experimental data as given in paper PMC4336329 (PLoS ONE, 2015).
# Out of some 310,000 compounds screened, about 2,200 (0.71%) showed an effect of 50% or more. The effect is printed as a negative number. The list shows a part of the results.
# Target: human ether-à-go-go-related gene (hERG) potassium channel (human, UniProt Q12809)
# Assay: primary screen, population patch clamp on CHO cells stably expressing hERG
# human ether-à-go-go-related gene (hERG) potassium channel, sequence (Q12809 whole entry, looked up): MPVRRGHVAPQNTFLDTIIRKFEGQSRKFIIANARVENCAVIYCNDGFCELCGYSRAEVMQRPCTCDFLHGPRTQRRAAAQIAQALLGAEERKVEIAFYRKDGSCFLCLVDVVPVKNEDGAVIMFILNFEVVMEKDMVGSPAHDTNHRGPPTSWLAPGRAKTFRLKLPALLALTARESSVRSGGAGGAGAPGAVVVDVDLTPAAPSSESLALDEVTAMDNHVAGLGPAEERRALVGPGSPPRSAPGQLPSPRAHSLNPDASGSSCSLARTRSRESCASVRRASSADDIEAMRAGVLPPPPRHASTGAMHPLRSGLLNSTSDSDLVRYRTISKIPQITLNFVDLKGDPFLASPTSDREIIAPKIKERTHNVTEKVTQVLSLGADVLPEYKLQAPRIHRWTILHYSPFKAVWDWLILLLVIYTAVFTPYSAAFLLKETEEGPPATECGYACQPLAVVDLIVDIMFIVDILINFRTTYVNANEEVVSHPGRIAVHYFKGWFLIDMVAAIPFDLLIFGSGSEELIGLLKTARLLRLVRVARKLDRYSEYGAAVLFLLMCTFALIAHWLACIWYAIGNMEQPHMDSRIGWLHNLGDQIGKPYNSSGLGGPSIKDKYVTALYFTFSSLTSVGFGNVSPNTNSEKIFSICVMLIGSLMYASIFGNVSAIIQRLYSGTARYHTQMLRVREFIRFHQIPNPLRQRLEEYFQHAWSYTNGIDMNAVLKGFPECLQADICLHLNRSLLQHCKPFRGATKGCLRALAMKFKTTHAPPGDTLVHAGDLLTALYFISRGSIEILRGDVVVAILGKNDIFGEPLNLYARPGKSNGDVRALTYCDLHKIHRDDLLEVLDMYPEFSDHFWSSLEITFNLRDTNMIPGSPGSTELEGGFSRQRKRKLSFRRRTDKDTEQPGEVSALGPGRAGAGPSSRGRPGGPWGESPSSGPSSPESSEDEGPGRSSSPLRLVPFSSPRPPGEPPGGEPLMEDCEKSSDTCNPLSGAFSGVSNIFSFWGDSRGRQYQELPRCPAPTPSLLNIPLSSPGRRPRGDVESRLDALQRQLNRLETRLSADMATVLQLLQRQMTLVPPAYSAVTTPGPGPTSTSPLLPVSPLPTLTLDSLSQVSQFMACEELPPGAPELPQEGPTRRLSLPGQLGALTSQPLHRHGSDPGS
row,SMILES,"hERG current change (%, negative = inhibition) at 1uM"
1,C=CCN1C(=O)/C(=C/c2ccccc2)S/C1=N/c1nccs1,5.36%
2,O=C(C1=C[C@H](c2ccc(Br)cc2)C[C@H](OCc2ccc(CO)cc2)O1)N1CCOCC1,-1.15%
3,O=C(NCc1ccccn1)c1ccc(Cl)c(S(=O)(=O)NCc2ccccc2)c1,0.792%
4,O=C(CCCN1C(=O)/C(=C/c2cccc(Br)c2)SC1=S)N1CCOCC1,14.5%
5,O=S1(=O)N=C(c2ccccc2)c2ccccc21,10.2%
6,CC1(C)CC(=O)C2=C(C1)N(CCN1CCOCC1)C1=C(C(=O)CC(C)(C)C1)C2c1cccc(F)c1,-7.98%
7,CC(C)(C)C(=O)Nc1ccc(C(=O)NNC(=O)c2ccccc2)cc1,6.81%
8,Cc1cccc(C(=O)OCC(=O)Nc2sc3c(c2C#N)CCC3)c1,12.3%
9,COc1nc(-c2ccccc2)nc(C)c1CC(=O)O,8.43%
10,Cc1c(NS(=O)(=O)c2ccc3c(c2)Cc2ccccc2-3)c(=O)n(-c2ccccc2)n1C,8.38%
11,CC12CCC(C(=O)NCc3ccc4c(c3)OCO4)(C(=O)C1=O)C2(C)C (stereo not drawn),3.57%
12,O=C(Cn1nnc2ccccc21)c1ccc(Cl)cc1,9%
13,Cc1csc(NC(=O)c2cc(C)oc2C)n1,4.97%
14,O=C(Nc1sc2c(c1C(=O)O)CCCCC2)c1ccco1,-5.14%
15,Cc1ccnc(SCc2cc(=O)c(OC(=O)c3cc([N+](=O)[O-])ccc3Cl)co2)n1,11%
16,O=S(=O)(c1ccc(Cl)c(NC(=S)Nc2cccc(O)c2)c1)N1CCOCC1,9.86%
17,CCO/C=N/c1c(C#N)c(CC#N)nn1-c1ccccc1,-0.468%
18,Cc1cc2c(cc1S(=O)(=O)N1CCN(c3ccccc3F)CC1)OCC(=O)N2,16.4%
19,O=c1cc(CNc2ccc(Br)cc2)nc2sccn12,4.46%

row,SMILES,"hERG current change (%, negative = inhibition) at 1uM"
1,COc1ccc(CNC(=O)CN=C2NC(=O)C(c3ccccc3)(c3ccccc3)N2)cc1,7.17%
2,Cc1nn(C)c(C(=O)NNC(=S)Nc2ccc(F)cc2)c1[N+](=O)[O-],-1.23%
3,O=C(O)c1cccc(C(=O)Cc2ccccc2)c1,11.9%
4,CCc1cccc(CC)c1N(COC)C(=O)Cn1ccccc1=N.Cl,11.4%
5,O=C(CSc1nnc(CNC(=O)c2cccs2)o1)Nc1ccc(Br)cc1,7.23%
6,COc1ccccc1N1CCN(C(=O)CSc2nc3ncnc(N)c3[nH]2)CC1,18.6%
7,COc1cccc(C(=O)O/N=C(\N)c2ccncc2)c1,6.82%
8,Cc1csc(NC(=O)CSc2ncn(-c3ccccc3)n2)n1,10.8%
9,Cc1[nH]c2ccccc2c1Cc1nnc(SCC(=O)NCc2ccco2)o1,8.95%
10,O=C(Nc1cccc(F)c1)c1ccc(S(=O)(=O)N2CCOCC2)cc1,11.2%
11,Cc1onc(-c2ccccc2)c1C(=O)n1cc(Br)cn1,-6.43%
12,COc1cc(C(=S)N2CCC(C)CC2)ccc1O,13.7%
13,O=C(NCc1ccccc1)C1(C(F)(F)F)CC(CCCO)CCCO1 (stereo not drawn),4.32%
14,CC(=O)Nc1ccc(-c2csc(NNC(=O)c3ccc(C)cc3)n2)cc1,8.91%
15,COc1ccc(OC)c(NC(=O)CSc2nnc(Cn3nnc4ccccc43)n2C)c1,0.886%
16,Cl.O=C(NC1CCCCC1)N1CCNCC1,14.6%
17,COc1ccc(C(=O)Nc2nnc(C3=COCCO3)o2)cc1OC,18.9%
18,CNC(C)(C)Cc1ccccc1.O=S(=O)(O)O,13.1%
19,CCCNc1nc2ccccc2n2c(C)nnc12,7.57%

row,SMILES,"hERG current change (%, negative = inhibition) at 1uM"
1,Cc1ccc(C(C)C)c(OCCCN2CCc3ccccc3C2)c1.Cl,-14.9%
2,COC(=O)C1=C(c2ccc(Cl)c(C(F)(F)F)c2)C[C@@H]2CC[C@H]1N2C(=O)NCCOc1ccccc1Cl,10.8%
3,CC(=O)c1c(C)[nH]c(C(=O)CSc2nc3ccccc3n2C)c1C,8.19%
4,O=C(O)CC12CC3CC(C1)CC(n1cncn1)(C3)C2,12.8%
5,COc1ccc(C(=O)NCCc2c[nH]c3ccccc23)cc1OC,3.3%
6,COC(=O)c1ccc(COc2cccc3c2CCN(Cc2ccccc2)C3=O)o1,2.36%
7,O=S(=O)(Nc1ccc(O)c2ccccc12)c1cccs1,4.77%
8,CCOC(=O)C1CCCCC12C(C#N)=C(N)Oc1n[nH]c(C)c12 (stereo not drawn),12.5%
9,CC(=O)Nc1ccc(NC(=O)C(C)OC(=O)c2oc3ccccc3c2C)cc1 (stereo not drawn),-48.6%
10,CC(C)CC(=O)Nc1nnc(S(=O)(=O)N2c3ccccc3CC2C)s1 (stereo not drawn),8.89%
11,CCCCn1c(N)c(N(CCC(C)C)C(=O)c2ccc(C)o2)c(=O)[nH]c1=O,11%
12,Cc1ccc(-c2nnn(CC(=O)N(c3cccc(F)c3)C(C(=O)NC(C)(C)C)c3ccco3)n2)o1 (stereo not drawn),22.2%
13,COCCN(C(=O)CSc1ncccn1)c1c(N)n(Cc2ccccc2)c(=O)[nH]c1=O,10.6%
14,COc1ccc(NS(=O)(=O)c2cc(NC(=O)COc3ccccc3F)ccc2OC)cc1,2.9%
15,CN(Cc1ccccc1)C(=O)COc1cccnc1[N+](=O)[O-],14.1%
16,O=C(Nc1nccs1)c1c(O)c2c([nH]c1=O)CCCC2,10.1%
17,Cc1onc(-c2ccccc2)c1C(=O)NCCc1c[nH]c2ccccc12,-1.95%
18,CCc1cc(=O)oc2cc(OCC(=O)N3CCCc4ccccc43)ccc12,6.51%
19,CC(C)(C)C(=O)COC(=O)c1cccc(NC(=O)c2ccco2)c1,16.4%
